B1: Caulobacter ParB omega fusion; a variant is named by its letters at X, in order, B8GW30 (parent)
chain: MESVVVGEPGMSEGRRGLGRGLSALLGEVDAAPAQAPGEQLGGSREAPIEILQRNPDQPRRTFREEDLEDLSNSIREKGVLQPILVRPSPDTAGEYQIVAGERAWRAAQRAGLKTVPIMVRELDDLAVLEIGIIENVQRADLNVLEEALSYKVLMEKFERTQENIAQTIGKSXSHVANXMRLLXLPDEVQSYLVSGELTAXHARAIAAAADPVALAKQIIEGGLSVRETEALARKAPNLSAGKSKGGRPPRVKDTDTQALESDLSSVLGLDVSIDHRGSTGTLTITYATLEQLDDLCNRLTRGI

In all, about 81,000 sequences were measured (“one-hybrid fitness for binding NBS DNA”: median about -0.1, highest 2% from about 0.36 on). Some of the results follow. A value given as a limit tells only on which side of the number the result lay.

Variants of B1 are the subject of the test. Kind of test: one-hybrid fitness for binding NBS DNA (the Noc-binding site; scaled: cognate 1, non-cognate 0); higher = stronger binding. Conditions: with NBS DNA site. The procedure, abridged:
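In E. coli USO, a HIS3 reporter with its site placed 19 bp from the promoter was used to select Caulobacter ParB variants randomised at four specificity codons. Growth lasted 48 hours at 37°C on histidine-free M9 containing 0.1 mM IPTG and 5 mM 3-AT. Fitness was taken as the log change in variant-to-wild-type read ratio from Illumina sequencing of pre- and post-selection plasmids, rescaled between the non-cognate and cognate sites.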
Turning to QMHT, the “one-hybrid fitness for binding NBS DNA” value came to 0.497.

As to VELS, the “one-hybrid fitness for binding NBS DNA” value is ≤ 0.2.

On to IKGW, for which the “one-hybrid fitness for binding NBS DNA” value was ≤ 0.2.

Regarding MGLG, the “one-hybrid fitness for binding NBS DNA” value is ≤ 0.2.

Consider CSLD, for which the “one-hybrid fitness for binding NBS DNA” value is ≤ 0.2.

For MTDP, the “one-hybrid fitness for binding NBS DNA” value is ≤ 0.2.

GHGC: the “one-hybrid fitness for binding NBS DNA” value is ≤ 0.2.

As for SHLG, the “one-hybrid fitness for binding NBS DNA” value was ≤ 0.2.

For the variant MCHV, the “one-hybrid fitness for binding NBS DNA” value was ≤ 0.2.

For the variant DTFL, the “one-hybrid fitness for binding NBS DNA” value was ≤ 0.2.

Consider IAEG, for which the “one-hybrid fitness for binding NBS DNA” value is ≤ 0.2.

With LTVL, the “one-hybrid fitness for binding NBS DNA” value is ≤ 0.2.

Turning to TFLC, the “one-hybrid fitness for binding NBS DNA” value is ≤ 0.2.

Regarding QMTG, the “one-hybrid fitness for binding NBS DNA” value is ≤ 0.2.

Consider PFKH, for which the “one-hybrid fitness for binding NBS DNA” value is ≤ 0.2.

RDRA: the “one-hybrid fitness for binding NBS DNA” value was ≤ 0.2.

On to PWFR, for which the “one-hybrid fitness for binding NBS DNA” value is ≤ 0.2.

For the variant RLAR, the “one-hybrid fitness for binding NBS DNA” value turned out to be 0.42.

Consider HYNK, for which the “one-hybrid fitness for binding NBS DNA” value is ≤ 0.2.

Regarding LIRI, the “one-hybrid fitness for binding NBS DNA” value is ≤ 0.2.

For the variant QPDT, the “one-hybrid fitness for binding NBS DNA” value was ≤ 0.2.

With ICAR, the “one-hybrid fitness for binding NBS DNA” value is ≤ 0.2.

On to QQEF, for which the “one-hybrid fitness for binding NBS DNA” value is ≤ 0.2.

Take VMYE: the “one-hybrid fitness for binding NBS DNA” value was ≤ 0.2.

As to NECG, the “one-hybrid fitness for binding NBS DNA” value was ≤ 0.2.

Take MNMY: the “one-hybrid fitness for binding NBS DNA” value was ≤ 0.2.

Turning to SHTI, the “one-hybrid fitness for binding NBS DNA” value is ≤ 0.2.

In the case of VSGQ, the “one-hybrid fitness for binding NBS DNA” value is ≤ 0.2.

In the case of RCDV, the “one-hybrid fitness for binding NBS DNA” value was ≤ 0.2.

For the variant NLHL, the “one-hybrid fitness for binding NBS DNA” value is ≤ 0.2.

Turning to LPGV, the “one-hybrid fitness for binding NBS DNA” value was ≤ 0.2.

For TEST, the “one-hybrid fitness for binding NBS DNA” value was ≤ 0.2.

Turning to EHHI, the “one-hybrid fitness for binding NBS DNA” value is ≤ 0.2.

Take KHTT: the “one-hybrid fitness for binding NBS DNA” value is ≤ 0.2.

Consider ANDG, for which the “one-hybrid fitness for binding NBS DNA” value is ≤ 0.2.

On to RVRA, for which the “one-hybrid fitness for binding NBS DNA” value was 0.308.

Take SMPI: the “one-hybrid fitness for binding NBS DNA” value is ≤ 0.2.

Take DGPG: the “one-hybrid fitness for binding NBS DNA” value is ≤ 0.2.

REPW: the “one-hybrid fitness for binding NBS DNA” value is ≤ 0.2.

For PARR, the “one-hybrid fitness for binding NBS DNA” value was ≤ 0.2.

Turning to NHHC, the “one-hybrid fitness for binding NBS DNA” value was ≤ 0.2.

As to AMRN, the “one-hybrid fitness for binding NBS DNA” value was ≤ 0.2.

For HNCF, the “one-hybrid fitness for binding NBS DNA” value was ≤ 0.2.

On to YHIS, for which the “one-hybrid fitness for binding NBS DNA” value was ≤ 0.2.

Consider GMFR, for which the “one-hybrid fitness for binding NBS DNA” value is ≤ 0.2.

For NPYS, the “one-hybrid fitness for binding NBS DNA” value is ≤ 0.2.

In the case of HARI, the “one-hybrid fitness for binding NBS DNA” value was ≤ 0.2.

Turning to PPDV, the “one-hybrid fitness for binding NBS DNA” value was ≤ 0.2.

Regarding VDTC, the “one-hybrid fitness for binding NBS DNA” value was ≤ 0.2.

In the case of RPST, the “one-hybrid fitness for binding NBS DNA” value was ≤ 0.2.

For the variant TYSG, the “one-hybrid fitness for binding NBS DNA” value was ≤ 0.2.

In the case of DDTC, the “one-hybrid fitness for binding NBS DNA” value was ≤ 0.2.

For the variant QYLM, the “one-hybrid fitness for binding NBS DNA” value is ≤ 0.2.

On to CMTA, for which the “one-hybrid fitness for binding NBS DNA” value is ≤ 0.2.

For EHTM, the “one-hybrid fitness for binding NBS DNA” value is ≤ 0.2.

For GQVV, the “one-hybrid fitness for binding NBS DNA” value is ≤ 0.2.

Regarding VITR, the “one-hybrid fitness for binding NBS DNA” value was ≤ 0.2.

Take KRNR: the “one-hybrid fitness for binding NBS DNA” value came to 0.661.

Consider YTQF, for which the “one-hybrid fitness for binding NBS DNA” value was ≤ 0.2.

In the case of PKMQ, the “one-hybrid fitness for binding NBS DNA” value was ≤ 0.2.

Turning to LTLA, the “one-hybrid fitness for binding NBS DNA” value was ≤ 0.2.

Regarding MKMS, the “one-hybrid fitness for binding NBS DNA” value is ≤ 0.2.

Regarding FVNV, the “one-hybrid fitness for binding NBS DNA” value is ≤ 0.2.

QMAA: the “one-hybrid fitness for binding NBS DNA” value came out at 0.339.

ALAK: the “one-hybrid fitness for binding NBS DNA” value is ≤ 0.2.

Consider GAQH, for which the “one-hybrid fitness for binding NBS DNA” value was ≤ 0.2.

Take CESS: the “one-hybrid fitness for binding NBS DNA” value is ≤ 0.2.

Consider WSYN, for which the “one-hybrid fitness for binding NBS DNA” value was ≤ 0.2.

Turning to KVSG, the “one-hybrid fitness for binding NBS DNA” value is ≤ 0.2.

In the case of ATHK, the “one-hybrid fitness for binding NBS DNA” value was ≤ 0.2.

For the variant TQND, the “one-hybrid fitness for binding NBS DNA” value is ≤ 0.2.

SPCI: the “one-hybrid fitness for binding NBS DNA” value was ≤ 0.2.

For IWSR, the “one-hybrid fitness for binding NBS DNA” value is ≤ 0.2.

As for ELNY, the “one-hybrid fitness for binding NBS DNA” value was ≤ 0.2.

As for GYDT, the “one-hybrid fitness for binding NBS DNA” value was ≤ 0.2.

As to PAPP, the “one-hybrid fitness for binding NBS DNA” value was ≤ 0.2.

In the case of VPGC, the “one-hybrid fitness for binding NBS DNA” value was ≤ 0.2.

Regarding NSLD, the “one-hybrid fitness for binding NBS DNA” value is ≤ 0.2.

Turning to VWGI, the “one-hybrid fitness for binding NBS DNA” value is ≤ 0.2.

As for CQLT, the “one-hybrid fitness for binding NBS DNA” value is ≤ 0.2.

With PMVY, the “one-hybrid fitness for binding NBS DNA” value is ≤ 0.2.

As to RIHC, the “one-hybrid fitness for binding NBS DNA” value is ≤ 0.2.

Consider SQDA, for which the “one-hybrid fitness for binding NBS DNA” value is ≤ 0.2.

In the case of PGHG, the “one-hybrid fitness for binding NBS DNA” value is ≤ 0.2.

For QHAS, the “one-hybrid fitness for binding NBS DNA” value came to 0.348.

With MFTG, the “one-hybrid fitness for binding NBS DNA” value is ≤ 0.2.

As for KLRG, the “one-hybrid fitness for binding NBS DNA” value was ≤ 0.2.

Take CQDR: the “one-hybrid fitness for binding NBS DNA” value is ≤ 0.2.

Turning to RNIE, the “one-hybrid fitness for binding NBS DNA” value is ≤ 0.2.

Turning to PKGV, the “one-hybrid fitness for binding NBS DNA” value was ≤ 0.2.

For the variant HFTR, the “one-hybrid fitness for binding NBS DNA” value was ≤ 0.2.

Regarding NENG, the “one-hybrid fitness for binding NBS DNA” value was ≤ 0.2.

With ARLE, the “one-hybrid fitness for binding NBS DNA” value is ≤ 0.2.

Take NEIG: the “one-hybrid fitness for binding NBS DNA” value is ≤ 0.2.

On to AAND, for which the “one-hybrid fitness for binding NBS DNA” value is ≤ 0.2.

For ARKE, the “one-hybrid fitness for binding NBS DNA” value is ≤ 0.2.

On to ILVT, for which the “one-hybrid fitness for binding NBS DNA” value is ≤ 0.2.

For IFES, the “one-hybrid fitness for binding NBS DNA” value is ≤ 0.2.

Consider QTCW, for which the “one-hybrid fitness for binding NBS DNA” value is ≤ 0.2.

MMNT: the “one-hybrid fitness for binding NBS DNA” value was ≤ 0.2.

On to LVRF, for which the “one-hybrid fitness for binding NBS DNA” value is ≤ 0.2.

In the case of IMYR, the “one-hybrid fitness for binding NBS DNA” value was ≤ 0.2.

Take AHYR: the “one-hybrid fitness for binding NBS DNA” value was ≤ 0.2.

Regarding MSDR, the “one-hybrid fitness for binding NBS DNA” value was ≤ 0.2.

On to NLYS, for which the “one-hybrid fitness for binding NBS DNA” value is ≤ 0.2.

For the variant KDQT, the “one-hybrid fitness for binding NBS DNA” value was ≤ 0.2.

In the case of PCNE, the “one-hybrid fitness for binding NBS DNA” value is ≤ 0.2.

In the case of RYPA, the “one-hybrid fitness for binding NBS DNA” value was ≤ 0.2.

On to NKGV, for which the “one-hybrid fitness for binding NBS DNA” value is ≤ 0.2.

As to GRMK, the “one-hybrid fitness for binding NBS DNA” value was ≤ 0.2.

As to GCWL, the “one-hybrid fitness for binding NBS DNA” value was ≤ 0.2.

As for IRHI, the “one-hybrid fitness for binding NBS DNA” value is ≤ 0.2.

Turning to DSWN, the “one-hybrid fitness for binding NBS DNA” value is ≤ 0.2.

As to KYNE, the “one-hybrid fitness for binding NBS DNA” value was ≤ 0.2.

Take PVME: the “one-hybrid fitness for binding NBS DNA” value was ≤ 0.2.

In the case of ARIV, the “one-hybrid fitness for binding NBS DNA” value is ≤ 0.2.

With QLYL, the “one-hybrid fitness for binding NBS DNA” value was ≤ 0.2.

Consider RIFF, for which the “one-hybrid fitness for binding NBS DNA” value was ≤ 0.2.

YECR: the “one-hybrid fitness for binding NBS DNA” value is ≤ 0.2.

FRCN: the “one-hybrid fitness for binding NBS DNA” value was ≤ 0.2.

For VNMN, the “one-hybrid fitness for binding NBS DNA” value was ≤ 0.2.

On to KVNN, for which the “one-hybrid fitness for binding NBS DNA” value was ≤ 0.2.

As for NFLI, the “one-hybrid fitness for binding NBS DNA” value is ≤ 0.2.

Regarding PTLS, the “one-hybrid fitness for binding NBS DNA” value is ≤ 0.2.

Take TARW: the “one-hybrid fitness for binding NBS DNA” value was ≤ 0.2.

On to YHVR, for which the “one-hybrid fitness for binding NBS DNA” value is ≤ 0.2.

As to VNPL, the “one-hybrid fitness for binding NBS DNA” value was ≤ 0.2.

NNTD: the “one-hybrid fitness for binding NBS DNA” value is ≤ 0.2.

Consider MTPS, for which the “one-hybrid fitness for binding NBS DNA” value was ≤ 0.2.

In the case of RDPL, the “one-hybrid fitness for binding NBS DNA” value is ≤ 0.2.

On to HRQC, for which the “one-hybrid fitness for binding NBS DNA” value was ≤ 0.2.

CVTK: the “one-hybrid fitness for binding NBS DNA” value was ≤ 0.2.

RDQA: the “one-hybrid fitness for binding NBS DNA” value is ≤ 0.2.

For the variant DKNL, the “one-hybrid fitness for binding NBS DNA” value is ≤ 0.2.

Turning to YHNQ, the “one-hybrid fitness for binding NBS DNA” value is ≤ 0.2.

On to QMRA, for which the “one-hybrid fitness for binding NBS DNA” value stood at 0.569.

As to RCMP, the “one-hybrid fitness for binding NBS DNA” value was ≤ 0.2.

In the case of YCLV, the “one-hybrid fitness for binding NBS DNA” value is ≤ 0.2.

For the variant PKTV, the “one-hybrid fitness for binding NBS DNA” value is ≤ 0.2.

Turning to KTLW, the “one-hybrid fitness for binding NBS DNA” value is ≤ 0.2.

For the variant KEAS, the “one-hybrid fitness for binding NBS DNA” value is ≤ 0.2.

For GSSY, the “one-hybrid fitness for binding NBS DNA” value was ≤ 0.2.

YEQT: the “one-hybrid fitness for binding NBS DNA” value was ≤ 0.2.

For the variant DNAT, the “one-hybrid fitness for binding NBS DNA” value was ≤ 0.2.

Regarding AHYA, the “one-hybrid fitness for binding NBS DNA” value is ≤ 0.2.

For QVPL, the “one-hybrid fitness for binding NBS DNA” value is ≤ 0.2.

Regarding GPGK, the “one-hybrid fitness for binding NBS DNA” value is ≤ 0.2.

Turning to MKFG, the “one-hybrid fitness for binding NBS DNA” value was ≤ 0.2.

Turning to RQAC, the “one-hybrid fitness for binding NBS DNA” value was ≤ 0.2.

SRDN: the “one-hybrid fitness for binding NBS DNA” value is ≤ 0.2.

For PYKR, the “one-hybrid fitness for binding NBS DNA” value is ≤ 0.2.

As for YITG, the “one-hybrid fitness for binding NBS DNA” value was ≤ 0.2.

Turning to ERRC, the “one-hybrid fitness for binding NBS DNA” value is ≤ 0.2.

The record behind these values is a collection of fitness landscapes (doi:10.1016/j.celrep.2020.107928).
